# Paper PMC10668032
# The list shows a part of the results. At the low end of the ranking the order means little.
# Biological target: SIX1 homeodomain (reference allele) (UniProt Q15475)
# Assay: universal protein binding microarray
# Settings: Universal all-10-mer PBM (8x60K, AMADID 030236), 300 nM GST-tagged protein, Alexa Fluor 488 anti-GST; buffer, salt, pH and temperature not stated; high values mean tight binding; most listed sequences are background and not binding sites; double strand, one strand shown
row,Sequence,binding signal [E-score]
1,GACTCAGC,-0.214
2,GATCGTGC,0.276
3,CAAGACTG,-0.226
4,GCGCCCCC,-0.199
5,GAGAATAC,0.29
6,ACAGCCGA,-0.0274
7,AGATGATC,0.38
8,CCTGCCCA,0.107
9,CTCCGCAA,-0.204
10,GATGTCCC,-0.193
11,AGGAGTAA,-0.0223
12,TACTGGCA,-0.0507
13,TATTACGA,0.12
14,ATTCATTC,0.0773
15,CGCTTTGA,0.0363
16,AAGGAAAG,-0.0824
17,CACGCCGG,0.097
18,ATGATAAC,0.0455
19,GTCTGGTA,0.151
20,AATAAGCA,0.0365
21,CATTCACG,-0.174
22,CGCTTGCA,-0.0725
23,CCCATGGA,0.0358
24,GGAGTGTA,0.00041
25,GGCGGTAC,0.0303

row,Sequence,binding signal [E-score]
1,CGACGCCA,-0.206
2,CATAGCTC,-0.054
3,AACAGCCT,-0.226
4,CTCGGGAA,0.0596
5,AGCACCGC,0.0565
6,CACGTAGC,-0.237
7,ATTTTTTG,-0.152
8,CGAACGAA,-0.251
9,AGCCAATC,0.0187
10,TTATATAA,0.179
11,GCGACTCA,-0.141
12,CCACAAGC,-0.138
13,GACGCGGA,-0.0663
14,GTACCAAA,-0.00468
15,CTACCCAC,-0.0272
16,ATGAATAC,0.284
17,CCTACCCC,0.0956
18,AAGTACCC,-0.00666
19,ATTGCGAC,-0.00247
20,ATCTCACA,0.293
21,ATATACGG,0.305
22,AGTTGGTG,0.191
23,AAGCGCGT,-0.216
24,GATACACA,0.354
25,CTGCGCAG,-0.142

row,Sequence,binding signal [E-score]
1,AGAATATG,0.114
2,AGTCAGGC,-0.207
3,CAGACCCA,-0.09
4,CTCACGAC,-0.000585
5,CCCCACCG,0.16
6,CGACAGGC,-0.135
7,CGTTCGCC,-0.0726
8,ACAGGTTC,-0.127
9,AGGTTTGG,-0.1
10,ATAGATAA,0.094
11,GATCCTAC,0.32
12,TGCGTCAA,-0.175
13,ATTAAGTG,0.125
14,GACTCCAC,-0.182
15,CCCCCATA,0.0281
16,ACGCGAGT,0.0259
17,ACCCTAGG,-0.0347
18,CGCGCGCC,-0.0836
19,AACTGCTT,-0.201
20,CCTTAGAC,-0.123
21,CACTGCAA,-0.106
22,CCAAAAAC,0.0713
23,TATGTAGA,0.0544
24,TAGTAACA,-0.132
25,AAAAAACG,-0.233

row,Sequence,binding signal [E-score]
1,CAACAACG,-0.126
2,AAGAAGCG,-0.326
3,ATCAACAG,0.209
4,GCGCGTCA,-0.197
5,AGCACACA,-0.263
6,ACGCTGAA,-0.234
7,CTAGTATC,0.388
8,ATAGATTA,0.135
9,CTTCCAAC,-0.153
10,AACTTGAG,-0.232
11,AATAGCAA,0.0467
12,ACCTGTAC,0.00589
13,GGAGCGAA,-0.292
14,ACGAAAAA,-0.395
15,CAAACAAG,-0.215
16,GCTTCTAC,0.0506
17,CCGAGTCC,-0.0881
18,AACATGCT,-0.181
19,GAATGGTC,-0.243
20,ACTGTGGA,0.0576
21,AATCCAAA,-0.0987
22,AGGTCCCA,-0.0797
23,GTCGGAAA,-0.0118
24,CACTCGCC,-0.00599
25,ATTGTTCC,0.0234

row,Sequence,binding signal [E-score]
1,CTTGGTCA,-0.0119
2,GGTCCACC,-0.0994
3,GCTCCCGA,0.00864
4,ACCGAAAG,-0.218
5,GACGTGCC,-0.158
6,GGCGAGAC,0.0633
7,CCACACCA,0.15
8,CACGAACA,-0.00191
9,ATCACAGG,0.129
10,CTTTAACA,-0.188
11,AGGGTGGG,-0.0353
12,AGACTTAG,-0.187
13,ACAGGATC,0.283
14,ATTGATGC,0.182
15,AATGATTC,-0.0641
16,CGGTCAAA,-0.24
17,ATATTCCA,0.222
18,CAACTGGC,-0.135
19,AATAACCC,0.12
20,GACTTAGC,-0.227
21,CAAGCCTG,-0.111
22,AGTGCACT,-0.192
23,AACGCGAT,0.0903
24,GGGGAACA,-0.211
25,CTCCGCCC,-0.0707

row,Sequence,binding signal [E-score]
1,CGTTGAAG,-0.204
2,CGTTAGCA,-0.0784
3,ATGGCATG,-0.0599
4,ACTCATCA,-0.0444
5,CGCTTCCA,-0.173
6,ATGGAAAA,-0.0285
7,GGTCGCGA,0.114
8,GGGTCGCA,-0.0849
9,TGGTCAAA,-0.257
10,AGGGGTCC,-0.221
11,AAACGTCA,-0.233
12,AGATCACC,0.317
13,CATGAACA,-0.0859
14,AGGCCGCG,-0.241
15,CTTACCAC,-0.0585
16,AATGTTGT,-0.176
17,TACGGATA,0.401
18,ACCAGTCA,-0.1
19,GCCCGAGA,0.0429
20,AACTAGTG,-0.116
21,GAAGGGCC,0.0186
22,GAAACCAA,0.052
23,CGCGACAA,-0.119
24,ATAGAAGG,0.0424
25,TCCAGGCA,-0.00829

row,Sequence,binding signal [E-score]
1,CACACACA,-0.102
2,GTCGATGA,0.0348
3,AAGCCCAT,-0.0752
4,AAGTCGCC,-0.298
5,AAGTTGTG,-0.225
6,CTAACGAG,0.144
7,ATTACAGA,0.137
8,CCCTCGCA,0.0847
9,CATGGGAC,-0.0574
10,AACAATTC,-0.38
11,ACATCGGG,-0.0059
12,ATACGTCC,0.24
13,CATGTAAA,-0.195
14,ATCAGTAA,0.296
15,AAGCTCGA,-0.0115
16,ACTAGCCT,-0.116
17,ATGCAGTC,-0.0683
18,GGGGTCTA,0.194
19,GCCGCCGA,-0.00101
20,TCTAAGCA,-0.132
21,CCTATATA,0.138
22,GAGATTTA,-0.0915
23,TATCGCGA,0.395
24,AAGACCAC,-0.284
25,CAGGCTTA,-0.142

row,Sequence,binding signal [E-score]
1,TCCTATCA,0.307
2,CTACACTA,0.0388
3,AAGGACCG,-0.304
4,CAATCGGA,0.198
5,CTAACTTA,-0.0631
6,TATCAAAA,0.342
7,GCACTGTA,-0.124
8,TCGCGGAA,0.0925
9,ATCTGGCA,0.23
10,GACGACTC,-0.113
11,ACGACCAC,-0.231
12,GCCAACAC,-0.00375
13,ACTCACTG,-0.0843
14,AACGTTCC,-0.286
15,ACATAACA,-0.199
16,CGATACTA,0.424
17,AACGAACG,-0.304
18,ACTGTGAA,-0.195
19,AGTATCTC,0.376
20,ACAATATC,0.309
21,AGATCACT,0.385
22,AGCATAAC,-0.00911
23,CCTCATCG,0.185
24,ACTAAAAG,-0.0599
25,CTTTCTCC,-0.222

row,Sequence,binding signal [E-score]
1,AAGCTAAC,-0.212
2,CAGTAGGC,-0.207
3,AAGAAAGG,-0.0535
4,AATAGGAG,0.0185
5,AAACAGAA,-0.212
6,AAGCCTAC,-0.139
7,TAGCGAGA,0.0304
8,AGTGCAAG,-0.139
9,GAGTGTCA,0.219
10,ACATAAGT,-0.175
11,AGTGTGTC,-0.0591
12,CCAGCTCA,0.0811
13,ACGGCCCT,-0.115
14,GTGGAACA,-0.118
15,AACACGCG,-0.0494
16,AGACAACT,-0.168
17,GAGGTCAC,-0.182
18,CTTTCCAA,-0.192
19,TGGTGCAA,-0.215
20,ACACAGGA,0.065
21,CGGACCGA,0.0499
22,CCCGCATA,0.127
23,AGTCGCTA,-0.106
24,GTTGTAAA,-0.132
25,GTAAATAA,-0.162

row,Sequence,binding signal [E-score]
1,CGCGGTCC,-0.134
2,CTTTTTTC,-0.151
3,GCCCTATA,0.0666
4,AAGCAGGG,-0.0764
5,CTGCCCCC,-0.16
6,CTCTCTGC,-0.0385
7,TTAGAGAA,-0.234
8,AACTTACC,-0.118
9,GCCCGCTA,-0.0884
10,GATGCCCC,0.101
11,GAATAAAC,-0.117
12,CATCCATA,0.081
13,AAGTCATA,-0.0827
14,CAATGTAC,-0.135
15,TAGGACGA,0.0643
16,ACAGGCGC,-0.206
17,GTCTAGAA,-0.0166
18,AATCCGTA,0.138
19,AGTTGATA,0.406
20,CGGTCGCA,-0.169
21,AGGCCGCA,-0.126
22,CTTAGATA,0.19
23,TCACAGCA,0.00916
24,CGCCTACC,-0.162
25,CGAGTCGC,-0.0367

row,Sequence,binding signal [E-score]
1,CCCGCGAC,-0.0253
2,CGATGTCC,-0.209
3,GGTGAACA,-0.229
4,ACAGCGAC,-0.164
5,CCCATCTA,0.0154
6,AGCGGGTG,0.059
7,CTGTAAAG,-0.146
8,GTTATCAA,0.0902
9,ACTCGACT,-0.043
10,ATTGATTG,-0.0121
11,AATAAAAA,-0.23
12,CATGGAAG,-0.125
13,CACAGTGG,0.00931
14,ACGGTAAC,-0.0183
15,CAGCGATA,0.359
16,CATGAGGA,0.147
17,GACGTTCC,-0.248
18,TACGCCGA,-0.0265
19,GCAAGGAC,-0.257
20,AAACATAA,-0.108
21,CGTTCTCA,0.0662
22,AACGGCGA,0.107
23,CACAACTG,-0.0727
24,CGCGATGC,-0.00696
25,AATTTCCT,-0.0683

row,Sequence,binding signal [E-score]
1,AGTAGATA,0.334
2,GTAGCGTA,0.00387
3,CCTCTGCG,-0.0705
4,ATTACCAA,-0.209
5,CTAGCTTC,-0.147
6,GGAACTCC,-0.262
7,ACCAATAG,-0.0255
8,CTCCCCGA,0.0232
9,CGCTGCGC,-0.162
10,ACAACTTG,-0.147
11,CCGTCTTC,-0.131
12,AGGACATA,-0.102
13,TCGCTTAA,-0.124
14,GATGTGCA,-0.21
15,AGCCAGTA,-0.0381
16,CACGTTGG,-0.135
17,CGAAATTC,-0.205
18,AATCTTGC,-0.162
19,AGCGGTGG,-0.0839
20,AGCAATAT,0.143
21,ATGCCGAC,0.103
22,ACCTTCCC,-0.0278
23,ATGAGCTC,0.166
24,ACCGTAGG,-0.254
25,CCCACCGC,-0.0305

row,Sequence,binding signal [E-score]
1,AATCTTAA,-0.27
2,AAACATCG,-0.179
3,AAATGTAG,-0.194
4,CCCTGAAA,-0.0661
5,GCATGCGA,0.0225
6,ACGGAACG,-0.161
7,CGATAGAC,0.0748
8,AAGAGTCT,-0.275
9,TCCCTAGA,0.0868
10,AGTCAAGG,-0.187
11,CCAGGCGC,-0.127
12,AGAAAAAC,-0.259
13,CGATAGTC,0.167
14,CTTATTAC,0.044
15,GCTCGCAA,-0.104
16,CGGCGATA,0.348
17,GGTGCACC,0.0775
18,ACTTCTGA,-0.218
19,GTATGAAC,0.208
20,CCAGGTGC,-0.0328
21,AGTCATGG,-0.0657
22,ACACCAGA,0.27
23,AGCTGAAG,-0.208
24,AGATTGCC,-0.216
25,CTACTCCC,0.173

row,Sequence,binding signal [E-score]
1,ACCGTAGC,-0.112
2,AGTGGTGA,-0.178
3,ACAAGCGA,-0.0406
4,GGCCGAAC,-0.197
5,GAGCGGCA,-0.204
6,TACACCGA,0.361
7,AAGGCTGG,-0.323
8,CCGAAGTC,-0.279
9,CCGCGAGA,0.104
10,AGAAGTGC,-0.113
11,AAGGGGCG,-0.0747
12,ACCTCGGA,0.119
13,ACGGACTC,-0.184
14,GGATGCTA,-0.0387
15,ACCCATCG,0.241
16,TTATAGAA,-0.0775
17,ATTACAGG,-0.176
18,ACAAGACA,-0.0355
19,ATTCCCAC,0.0338
